This is an account of results in US6890523B2 (priority 1999, dated 2005).

Experiment [1] has as its system C. difficile. The conditions noted are these: in vivo; cited from earlier work.
For experiment [2], the system named is C. difficile.
Experiment [3] has as its system C. difficile. Particulars: in vivo.

Take `Cc1ncc([N+](=O)[O-])n1CCO` [metronidazole]: in the experiment on C. difficile [1], the “time to relapse or recurrence after stopping therapy” value was 1 to 2 weeks, the “time to symptomatic improvement” value is recorded as 4 to 8 days and the “treated patients with relapse or recurrence of CDAD” value was 20%. The “animals surviving 16 days after the last dose of antibiotic” value with C. difficile [2] (hamster, metronidazole alone) turned out to be 20%. Further, in the experiment with C. difficile [2] (in vivo), the “animals with relapse/recurrence of CDAD at the conclusion of therapy” value is reported as 80-90%. Moreover, the “animals protected, monotherapy after CDAD onset” value in the experiment with C. difficile [3] is given as 20%.
